Source: the supplement of paper PMC3334620
In all, about 33,000 sequences were measured (“E-score (-0.5 to 0.5)”: median about -0.041, highest 2% from about 0.37 on). The list shows a part of the results.

target: T1, Ecm22 (UniProt Q05958); assay: PBM E-score (8-mer binding enrichment) (E-score (-0.5 to 0.5)); higher = stronger / more preferred TF binding; most listed sequences are background and not binding sites; conditions: protein concentration: 200 nM; construct: GST-full length
T1 sequence: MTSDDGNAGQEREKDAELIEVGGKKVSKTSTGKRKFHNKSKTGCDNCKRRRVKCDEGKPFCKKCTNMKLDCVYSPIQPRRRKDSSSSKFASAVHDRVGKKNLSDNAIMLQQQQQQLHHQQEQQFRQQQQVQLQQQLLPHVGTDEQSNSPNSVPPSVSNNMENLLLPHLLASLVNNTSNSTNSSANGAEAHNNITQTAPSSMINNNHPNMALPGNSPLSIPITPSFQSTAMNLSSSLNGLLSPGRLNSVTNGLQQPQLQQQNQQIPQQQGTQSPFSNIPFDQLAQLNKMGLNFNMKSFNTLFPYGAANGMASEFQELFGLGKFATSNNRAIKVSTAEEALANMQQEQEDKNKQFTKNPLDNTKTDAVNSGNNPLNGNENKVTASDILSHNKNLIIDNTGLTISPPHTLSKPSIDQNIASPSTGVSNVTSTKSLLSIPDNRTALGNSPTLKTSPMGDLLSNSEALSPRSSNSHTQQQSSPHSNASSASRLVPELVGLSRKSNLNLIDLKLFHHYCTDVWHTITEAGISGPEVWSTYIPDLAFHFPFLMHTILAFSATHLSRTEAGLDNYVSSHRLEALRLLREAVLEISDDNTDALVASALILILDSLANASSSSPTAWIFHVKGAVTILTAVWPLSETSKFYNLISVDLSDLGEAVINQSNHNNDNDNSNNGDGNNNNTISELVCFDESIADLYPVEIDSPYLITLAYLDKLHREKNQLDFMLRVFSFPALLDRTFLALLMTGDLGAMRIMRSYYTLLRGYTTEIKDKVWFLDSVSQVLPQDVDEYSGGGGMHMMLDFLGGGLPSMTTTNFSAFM
How it was run: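 E-scores (a modified Wilcoxon-Mann-Whitney statistic) were assigned by the Universal PBM Analysis Suite to every ungapped eight-base word pooled with its reverse complement. The input came from universal all-10-mer Agilent arrays made double-stranded by primer extension and probed with GST-tagged yeast transcription factors at about 100-200 nM. Fluorescent anti-GST detected bound protein, and masliner normalised the scans.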

Sequence	PBM E-score
AGATGTGA	0.0744
GCATTTTA	-0.00685
TATGAAGA	-0.0483
CAGGAGGC	-0.207
GCCATCGA	-0.036
CACGAGGC	0.171
CGGCAAAA	-0.156
GCAAAAGC	-0.0503
CGGTCGTA	0.464
CAAGGTAG	-0.155
ACGAGGCA	0.401
GGGGTCCA	-0.215
ATCTAAAT	0.164
CTTCGGTC	0.225
CTTTCGCA	0.00706
AACTAAAC	0.24
CGCCGGAG	0.172
CCATAGTA	-0.0616
AGTGAACG	0.267
CTGCTACC	-0.188
ATCGTGAC	0.106
ATTCTCGA	0.168
GCTTAGTA	-0.0609
CAATTACC	0.00312
AGAGGCCC	-0.171

Sequence	PBM E-score
ATTTTATC	0.0997
AGCGATTC	0.12
GAGGTTAA	-0.246
GCCAACCC	-0.243
ACTCCTTG	-0.0589
ACGCTACC	-0.163
AAATACGA	0.451
CGCTGGCA	-0.199
AGGGATTC	-0.0618
CAGCATCG	-0.0422
CCATATGC	0.137
CCTATTAG	-0.339
CCCCATAA	-0.312
GAAATGAC	-0.0886
AATATGCG	0.229
AAGCCCTG	-0.243
AATTTTGC	0.0283
GCAGGACC	-0.107
CCCATTCG	0.0416
GCCGGAGC	-0.0845
GTTTCCGA	0.238
CCACTATA	0.111
TAGAAATA	0.0152
TGGTCGAA	-0.197
AGTGAACA	-0.0214

Sequence	PBM E-score
CGCTTTAG	0.0766
GTTGTTGA	0.00174
GATTTGTA	-0.133
AGAATGCC	-0.236
ACGGATAG	0.116
GGAACTGA	0.108
CAGCGTCG	0.0918
ACGGCCGA	0.174
CGCTTCTC	0.0567
GACTAATA	0.0348
CCAGAGCC	-0.0732
ATGTAAGG	-0.194
CTGGCCAC	-0.338
ACCTGTCC	-0.171
GATCTATA	0.143
CAAACCCG	0.0549
AGTTAGCC	-0.0838
CTCTTCTC	-0.216
CCCAGGCG	-0.177
ACTTGCTC	-0.147
CATTCACA	-0.125
ACCATAAT	-0.00969
CATGTTTA	0.0358
CACAGTGA	-0.0973
AACGGTTC	0.177

Sequence	PBM E-score
CATGTGGG	-0.247
AAAGACAA	-0.105
ACCTGTTC	0.0849
ACACCATC	-0.296
AGCACAAT	-0.0457
GTAATAAA	0.191
CCGGCAAA	-0.0597
GTCAGTTA	-0.198
ACCGACGT	0.329
GCACGTTA	0.0282
ATCTACTG	0.00504
GGCACGAC	0.032
AAGATTGG	-0.0014
AAATTCTG	-0.0343
CAACTTCC	0.0673
ACCTAGTG	-0.194
CACAGCTC	-0.158
AGAGACTA	-0.0518
AGTTTGCA	-0.0381
GCGCCATA	-0.118
AAATGCAG	-0.117
TCTTGCCA	-0.185
TCAGGGAA	0.0165
CGTCGTAA	0.446
AATGGGTC	-0.146

Sequence	PBM E-score
CACAGATC	-0.136
CCGATCCC	-0.0441
AATCAGGA	-0.124
AGCTGCCC	-0.0461
AGCGTAGA	-0.0994
ATAAGTGA	-0.0231
GCCAATAC	0.0426
ATCACATG	-0.0392
ACAACGGA	0.00212
GACCCGCC	0.0114
CTGATCCC	-0.0594
CTACATAG	-0.114
CCCCTCGG	0.266
AGATGGCT	-0.169
AAGCTCAC	-0.0834
ACCACGAC	0.00538
ATTCATTG	-0.00988
GCTTGCGA	0.161
CAAAATGG	-0.128
CCCGAACG	0.274
AGCGCTTC	-0.0209
ACCCGGGT	-0.0402
CACTTGGG	-0.376
TAACGGAA	0.102
ACATGGTG	-0.0868

Sequence	PBM E-score
AAGAGCAT	-0.0744
ACGGGACC	0.0546
CTCGAGGA	-0.123
ATGGCAAG	-0.146
AGTATCAG	-0.0962
AAATGTTC	0.0504
AACCCATG	-0.23
ATTCCGCA	-0.0441
CTTTGAGA	-0.0843
CCCCCTTC	-0.269
CGTTACGC	0.256
TGCCACAA	-0.147
CAACATTC	-0.101
CTAAAAGC	-0.00248
CGTTCAAC	0.377
CTTGCTGC	-0.14
GATGCAAC	-0.127
CTAGATCA	-0.0351
ACCGTGAG	-0.184
TTAAGGAA	-0.016
ACACGAAG	0.249
AGGAAAGG	-0.33
TCGCCTAA	0.0931
CCTAACAG	-0.0916
ACGTTATG	0.163

Sequence	PBM E-score
GCTTATTA	0.0326
CATGGCTA	-0.0322
AACTCGAA	-0.0361
AGCTCATC	-0.0135
GACGGGCA	-0.058
CGCAGTAC	0.174
GATTCCGA	-0.0306
AAACTAGT	-0.00576
CGCTCTTC	0.202
AAAGATTA	0.0079
ATGAGCGC	0.0506
GGACAGAA	-0.00623
CATCCCGC	-0.131
ACTCGCCG	0.144
GTACACCA	0.0324
CAGACTCA	-0.175
ATACGAGG	0.488
AGCCGCGA	0.0625
GGACGATA	-0.213
CGTCGCGC	0.0932
ACCCAGCA	-0.0699
ATCATCTA	-0.0624
ATCCTAAT	0.0012
CCTTGTTC	0.0241
CACCCAGA	-0.29

Sequence	PBM E-score
ATAGTGAC	0.0492
CATTGGCG	-0.239
GCAGCGAA	0.229
ATTCTAGG	0.0128
CTACAGAC	-0.0549
AGGAACAG	-0.257
GATGTGCA	-0.0786
ATCAAATA	0.0985
ATGTTTTC	0.136
ATGACGTA	0.105
ATGGTTGC	-0.0601
CAAGAACG	0.337
AGCTCACG	-0.104
ACAAAGCA	-0.0601
ACTTAACA	-0.121
CGCTACAC	0.00181
ATACCTGC	0.0396
AGCTAATG	-0.0961
CCATTCAA	0.0326
ATCGTAAT	0.263
CGAGACAA	0.133
AATGTGTA	-0.0375
CACTATAC	0.2
GGAGACAC	-0.226
AGGGACGG	-0.256

Sequence	PBM E-score
CGCCGCGC	-0.0266
CAGAAGCC	-0.0648
TATCGCAA	-0.0102
GAGTGAAC	0.117
ATGCATCA	-0.00851
AAACGCCC	0.121
CACAACTC	0.144
CAAACAAG	-0.135
GCATCTCA	0.00225
ATACAAGG	-0.14
CTTTATCA	-0.178
GCAGCGCA	-0.0703
ACCGGCAA	-0.0122
AACAGCCG	-0.0151
CAGATGAA	-0.11
GACGACAC	-0.0609
ACAGCATA	0.0976
AGTTTACC	-0.0268
CCTAGGCC	-0.419
AGATTCAG	-0.0218
CAAAGGGG	-0.198
CGGAGTGA	0.0314
AGCCAGCG	-0.0343
ACTCTCCT	-0.191
CAAAGATC	0.0168

Sequence	PBM E-score
AATGTCAG	-0.178
ACTCTCTA	-0.197
GCCGACGC	-0.0829
TCCAGAAA	-0.153
CAGTTACG	0.0991
CTAAGTGA	0.0102
ATGCTATC	0.0455
ACTGTGAA	0.1
ACTCGATC	0.0469
GGTGAGAA	-0.212
CACTTGCA	-0.0874
CAAGGCGA	-0.111
AGGAAACG	0.281
CCCGTAAC	0.189
TGAGGCAA	0.0208
ACTCTATG	-0.0729
ACGGTCAG	-0.0484
CTCCGGAG	0.0177
ACATTGAG	-0.128
GACTTAGA	0.0336
CAACAAAA	0.0263
TCCGCGGA	0.00602
TTACATAA	0.0922
CACCCTTC	-0.0922
CAGAGCGA	0.0945

Sequence	PBM E-score
GTGGTTTA	-0.201
TTATTCAA	0.101
AGGGGCGA	-0.302
GCGCGCCA	0.1
ACATCTAA	-0.0724
CCTCGCAA	0.185
AACCCTCG	0.0728
ATGATAGG	-0.189
AGTCAAAT	-0.259
AGGGTCCA	-0.218
GCATACGC	0.199
AGCAGTAA	-0.0493
CGCTTCAC	0.0136
GGGGAACA	-0.0676
ATACCCGA	0.277
AGAGTAGG	-0.156
ACTCTTGC	-0.216
GAATTGTC	-0.0741
CGACCCAA	0.241
ATCTGAGG	-0.215
ACGTTCTC	0.107
AGCAGAGG	-0.301
CTCCCGCC	-0.234
AGTATTTC	0.0557
TATGTGGA	-0.076

Sequence	PBM E-score
ATGACCGG	-0.136
GATTCTCC	-0.12
CCCCTGAC	-0.17
AAACTCGT	0.34
CCCTTCAA	-0.254
ACTCGAGC	-0.0116
AAATCGGT	0.0646
TAGGAGAA	-0.0999
AACGATCA	0.346
AAACTGAG	-0.0707
CAGTTAGC	-0.284
GTGGCCGA	-0.194
AGCAGGAC	-0.0126
GTGGATTA	-0.0747
CACTCAGA	-0.166
ATAAGCGG	-0.0944
AATCTGGG	-0.133
GCACCCAC	0.104
AAGGGGAA	-0.293
AGCTAGGA	-0.228
AACAGACT	-0.1
ACTAGGAT	0.03
CCCGTACC	0.446
AGTAGAAG	-0.0885
AAGACAGT	-0.27

Sequence	PBM E-score
ACAGGGGC	-0.0848
CAGTGGTA	-0.12
CCCCGAAC	-0.0375
AAAATGAG	-0.189
CACTGTGC	-0.121
CACAGGGG	-0.0261
AATGACGG	-0.12
TGCGAACA	0.204
ATCGCTAG	0.0184
GGGGAAGA	-0.224
ACCATCCC	-0.168
ACTCCAAA	-0.0508
CTTCCCTA	-0.364
AGTTGCCA	-0.222
CCTGTCGA	-0.0635
CTGGTAAC	0.0674
AGCCGCTG	-0.203
ACCCGTGA	-0.0665
CACCTTCA	-0.329
ACCACACC	-0.158
CTGCTAAC	-0.152
AAGGAGGT	-0.157
GGGACCCC	-0.23
CTCCTCGC	0.126
AGCCGCTC	0.0341

Sequence	PBM E-score
ATATGCGG	0.162
CAAGTACC	0.12
ACGGAGTG	0.279
AGCGCCAT	-0.152
AACTCTAG	-0.062
AGATCCCT	-0.0177
AGGTCGGC	-0.138
AGCGGGGC	0.0632
ACCATACG	0.364
AGCGAATG	0.181
AAGGCCTG	-0.215
GGTTTACA	-0.0503
AGTAACGC	-0.129
AAACATGC	-0.0498
ATTAGCTG	0.00294
GCTTCAGA	-0.236
ATCCAAAA	-0.258
CTCATGAG	-0.171
GAACTAGC	0.0254
